Results taken from article PMC9911399, “Two distinct binding modes provide the RNA-binding protein RbFox with extraordinary sequence specificity”.
Where a chain is given by its changes, count along the chain named. The list shows a part of the results.

T1: RBFOX1 RRM RbFoxmut (Fox-RRM*) (Homo sapiens, UniProt Q9NWB1 109-208, R118D;E147R;N151S;E152T)
T1 sequence: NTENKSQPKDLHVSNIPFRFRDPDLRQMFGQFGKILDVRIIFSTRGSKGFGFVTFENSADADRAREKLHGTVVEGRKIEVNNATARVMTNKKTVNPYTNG

B1: CAGGGAA (DNA:RNA)
RNA: GGGAGACCGGAAUUCAGAUUGUCCCAGGGAAUUAAAUCCCGUCGUAGCCACCA
DNA 1: CAATCTGAATTCCGGTCTCCC
DNA 2: TGGTGGCTACGACGGGATT
B2: AGCUCUU (DNA:RNA)
RNA: GGGAGACCGGAAUUCAGAUUGUCCAGCUCUUUUAAAUCCCGUCGUAGCCACCA
DNA 1: CAATCTGAATTCCGGTCTCCC
DNA 2: TGGTGGCTACGACGGGATT
B3: CUAGUUC (DNA:RNA)
RNA: B1 RNA with A26U, G27A, G29U, A30U, A31C
DNA 1: CAATCTGAATTCCGGTCTCCC
DNA 2: TGGTGGCTACGACGGGATT
B4: CAAUUUA (DNA:RNA)
RNA: B1 RNA with G27A, G28U, G29U, A30U
DNA 1: CAATCTGAATTCCGGTCTCCC
DNA 2: TGGTGGCTACGACGGGATT
B5: GUACGCA (DNA:RNA)
RNA: B1 RNA with C25G, A26U, G27A, G28C, A30C
DNA 1: CAATCTGAATTCCGGTCTCCC
DNA 2: TGGTGGCTACGACGGGATT
B6: UUCAAGG (DNA:RNA)
RNA: B2 RNA with A25U, G26U, U28A, C29A, U30G, U31G
DNA 1: CAATCTGAATTCCGGTCTCCC
DNA 2: TGGTGGCTACGACGGGATT
B7: CUCCUAU (DNA:RNA)
RNA: B2 RNA with A25C, G26U, U28C, C29U, U30A
DNA 1: CAATCTGAATTCCGGTCTCCC
DNA 2: TGGTGGCTACGACGGGATT
B8: AGCUUCG (DNA:RNA)
RNA: B2 RNA with C29U, U30C, U31G
DNA 1: CAATCTGAATTCCGGTCTCCC
DNA 2: TGGTGGCTACGACGGGATT
B9: GUCAGCC (DNA:RNA)
RNA: B2 RNA with A25G, G26U, U28A, C29G, U30C, U31C
DNA 1: CAATCTGAATTCCGGTCTCCC
DNA 2: TGGTGGCTACGACGGGATT
B10: AGACCGA (DNA:RNA)
RNA: B2 RNA with C27A, U28C, U30G, U31A
DNA 1: CAATCTGAATTCCGGTCTCCC
DNA 2: TGGTGGCTACGACGGGATT
B11: AAUGUUC (DNA:RNA)
RNA: B2 RNA with G26A, C27U, U28G, C29U, U31C
DNA 1: CAATCTGAATTCCGGTCTCCC
DNA 2: TGGTGGCTACGACGGGATT
B12: AAGGGGA (DNA:RNA)
RNA: B1 RNA with C25A, A30G
DNA 1: CAATCTGAATTCCGGTCTCCC
DNA 2: TGGTGGCTACGACGGGATT
B13: GGCGAGU (DNA:RNA)
RNA: B2 RNA with A25G, U28G, C29A, U30G
DNA 1: CAATCTGAATTCCGGTCTCCC
DNA 2: TGGTGGCTACGACGGGATT
B14: GAGGGUC (DNA:RNA)
RNA: B1 RNA with C25G, A30U, A31C
DNA 1: CAATCTGAATTCCGGTCTCCC
DNA 2: TGGTGGCTACGACGGGATT
B15: CACGUGC (DNA:RNA)
RNA: B1 RNA with G27C, G29U, A30G, A31C
DNA 1: CAATCTGAATTCCGGTCTCCC
DNA 2: TGGTGGCTACGACGGGATT
B16: CUCGUUC (DNA:RNA)
RNA: B2 RNA with A25C, G26U, U28G, C29U, U31C
DNA 1: CAATCTGAATTCCGGTCTCCC
DNA 2: TGGTGGCTACGACGGGATT
B17: GGUUGUA (DNA:RNA)
RNA: B2 RNA with A25G, C27U, C29G, U31A
DNA 1: CAATCTGAATTCCGGTCTCCC
DNA 2: TGGTGGCTACGACGGGATT
B18: AUUUGAG (DNA:RNA)
RNA: B2 RNA with G26U, C27U, C29G, U30A, U31G
DNA 1: CAATCTGAATTCCGGTCTCCC
DNA 2: TGGTGGCTACGACGGGATT
B19: GUUUGAC (DNA:RNA)
RNA: B1 RNA with C25G, A26U, G27U, G28U, A31C
DNA 1: CAATCTGAATTCCGGTCTCCC
DNA 2: TGGTGGCTACGACGGGATT
B20: UCACUUG (DNA:RNA)
RNA: B2 RNA with A25U, G26C, C27A, U28C, C29U, U31G
DNA 1: CAATCTGAATTCCGGTCTCCC
DNA 2: TGGTGGCTACGACGGGATT
B21: UGCGCAU (DNA:RNA)
RNA: B2 RNA with A25U, U28G, U30A
DNA 1: CAATCTGAATTCCGGTCTCCC
DNA 2: TGGTGGCTACGACGGGATT
B22: UCUGGGA (DNA:RNA)
RNA: B1 RNA with C25U, A26C, G27U, A30G
DNA 1: CAATCTGAATTCCGGTCTCCC
DNA 2: TGGTGGCTACGACGGGATT
B23: CGUUCUC (DNA:RNA)
RNA: B2 RNA with A25C, C27U, U31C
DNA 1: CAATCTGAATTCCGGTCTCCC
DNA 2: TGGTGGCTACGACGGGATT
B24: AGGGGGA (DNA:RNA)
RNA: B1 RNA with C25A, A26G, A30G
DNA 1: CAATCTGAATTCCGGTCTCCC
DNA 2: TGGTGGCTACGACGGGATT
B25: GGGCCCU (DNA:RNA)
RNA: B2 RNA with A25G, C27G, U28C, U30C
DNA 1: CAATCTGAATTCCGGTCTCCC
DNA 2: TGGTGGCTACGACGGGATT
B26: GCCGCUG (DNA:RNA)
RNA: B2 RNA with A25G, G26C, U28G, U31G
DNA 1: CAATCTGAATTCCGGTCTCCC
DNA 2: TGGTGGCTACGACGGGATT
B27: AAUGUAG (DNA:RNA)
RNA: B1 RNA with C25A, G27U, G29U, A31G
DNA 1: CAATCTGAATTCCGGTCTCCC
DNA 2: TGGTGGCTACGACGGGATT
B28: CGCAAUC (DNA:RNA)
RNA: B2 RNA with A25C, U28A, C29A, U31C
DNA 1: CAATCTGAATTCCGGTCTCCC
DNA 2: TGGTGGCTACGACGGGATT
B29: GAUGCCA (DNA:RNA)
RNA: B1 RNA with C25G, G27U, G29C, A30C
DNA 1: CAATCTGAATTCCGGTCTCCC
DNA 2: TGGTGGCTACGACGGGATT
B30: CAUCGCU (DNA:RNA)
RNA: B1 RNA with G27U, G28C, A30C, A31U
DNA 1: CAATCTGAATTCCGGTCTCCC
DNA 2: TGGTGGCTACGACGGGATT
B31: UGCGCUG (DNA:RNA)
RNA: B2 RNA with A25U, U28G, U31G
DNA 1: CAATCTGAATTCCGGTCTCCC
DNA 2: TGGTGGCTACGACGGGATT

Biological target: T1, RBFOX1 RRM RbFoxmut (Fox-RRM*)
Assay: EMSA; HiTS-Eq, 1 nM pool, 10 min; buffer printed only for the single-RNA assays: 10 mM Tris pH 7.5, 150 mM NaCl, 3.4 mM EDTA, 0.001% NP-40, 30 C
Conditions: tags: His6 N-terminal (pET28a); label: 5' 32P
Outline: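 A pool of RNA with 7 randomized nucleotides, 5′-radiolabelled and with DNA-annealed flanks, was equilibrated at 1 nM for 10 min in 50 µL with purified RbFox RRM, wild type or mutant, across increasing protein concentrations. Free RNA was separated by 8% native PAGE, excised, reverse-transcribed, barcoded by PCR and sequenced. Relative association constants were obtained from read-count changes of each RNA species versus the control reaction and normalised to the cognate motif.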

Binder | binding signal
B1 | 0.121 KA relative to UGCAUGU
B2 | 0.0707 KA relative to UGCAUGU
B3 | 0.0809 KA relative to UGCAUGU
B4 | 0.12 KA relative to UGCAUGU
B5 | 0.181 KA relative to UGCAUGU
B6 | 0.0713 KA relative to UGCAUGU
B7 | 0.0911 KA relative to UGCAUGU
B8 | 0.135 KA relative to UGCAUGU
B9 | 0.0902 KA relative to UGCAUGU
B10 | 0.112 KA relative to UGCAUGU
B11 | 0.0951 KA relative to UGCAUGU
B12 | 0.0737 KA relative to UGCAUGU
B13 | 0.0945 KA relative to UGCAUGU
B14 | 0.153 KA relative to UGCAUGU
B15 | 0.135 KA relative to UGCAUGU
B16 | 0.0837 KA relative to UGCAUGU

Binder | binding signal
B17 | 0.256 KA relative to UGCAUGU
B18 | 0.1 KA relative to UGCAUGU
B19 | 0.157 KA relative to UGCAUGU
B20 | 0.109 KA relative to UGCAUGU
B21 | 0.0907 KA relative to UGCAUGU
B22 | 0.0496 KA relative to UGCAUGU
B23 | 0.0553 KA relative to UGCAUGU
B24 | 0.149 KA relative to UGCAUGU
B25 | 0.0684 KA relative to UGCAUGU
B26 | 0.086 KA relative to UGCAUGU
B27 | 0.166 KA relative to UGCAUGU
B28 | 0.0566 KA relative to UGCAUGU
B29 | 0.072 KA relative to UGCAUGU
B30 | 0.113 KA relative to UGCAUGU
B31 | 0.127 KA relative to UGCAUGU
